{
  "source": "PubChem BioAssay AID504832",
  "about": "(National Center for Advancing Translational Sciences (NCATS), 2011)",
  "note": "Screen size: about 310,000 compounds; about 18,000 (5.8%) were called active. This list was built around the results that the source calls inconclusive (neither active nor inactive); the mix of calls is not that of the screen. Calls come from the whole dose curve; as a rule, active = well fitted inhibition curve with a large enough effect; inconclusive = small, poorly fitted or top-dose-only effect, or another doubt; inactive = no such curve, though single readings can be large or run the other way. No potency is given beside an inconclusive call; the fits are too rough. Potency is the fitted concentration of half-maximal effect; tags give direction and shape of the fitted curve.",
  "data": [
    {"experiment": "Primary qHTS for delayed death inhibitors of the malarial parasite plastid, 48 hour incubation", "conditions": "P. falciparum luciferase growth in erythrocytes; series mostly up to 28.7 µM", "procedure,_shortened": "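Luminescence readout; reporter = integrated firefly luciferase in P. falciparum. RBC culture at 2% hematocrit, 0.1% parasitemia final, 37 C/5% CO2; decreased signal taken as growth inhibition.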", "values": [
      {"smiles": "O=C(CSc1nnc2scc(-c3ccc(Cl)cc3)n12)NCc1ccco1", "Potency": "inconclusive [inhibitor, partial curve]"},
      {"smiles": "COC(=O)c1sc(NC(=O)/C=C/c2ccc(C)o2)nc1C", "Potency": "inactive"},
      {"smiles": "COc1ccc(C)cc1S(=O)(=O)NCC(c1ccc2c(c1)OCO2)N1CCOCC1", "note": "(stereo not given)", "Potency": "inactive"},
      {"smiles": "O=[N+]([O-])c1ccc(C=Nc2ccc(Cl)cc2Cl)s1", "Potency": "active: 10.4 µM"},
      {"smiles": "O=C(N/N=C/c1ccccc1Br)c1cccc(S(=O)(=O)N2CCOCC2)c1", "Potency": "inconclusive [inhibitor, single point]"},
      {"smiles": "O=C(Nc1ccccc1O)c1ccc(NC(=O)C2CC2)cc1", "Potency": "active: 2.08 µM"},
      {"smiles": "CCc1cc2c(-c3ccccc3)cc(=O)oc2cc1OC(C)C(C)=O", "note": "(stereo not given)", "Potency": "inconclusive [inhibitor, single point]"},
      {"smiles": "O=C(c1ccc(=O)[nH]n1)N1CCN(S(=O)(=O)c2ccc(C(F)(F)F)cc2)CC1", "Potency": "inconclusive [inhibitor, single point]"},
      {"smiles": "CC(=O)n1cc([C@@H]2C=C(C(=O)NCc3ccccc3)O[C@H](OCc3ccc(CO)cc3)C2)c2ccccc21", "Potency": "active: 11.7 µM"},
      {"smiles": "CC(C)(C)c1ccc(/C=N/N2CCN(c3ccccn3)CC2)cc1", "Potency": "inconclusive [inhibitor, single point]"},
      {"smiles": "Clc1ccc(CSc2cc3c(nn2)-c2ccccc2CC3)cc1Cl", "Potency": "inactive"},
      {"smiles": "CC1CN(C2CCCCC2)c2nc3c(c(=O)n(C)c(=O)n3C)n2C1", "note": "(stereo not given)", "Potency": "inactive"},
      {"smiles": "CN(CC(=O)Nc1cccc(F)c1)CC(=O)Nc1cccc(S(=O)(=O)N2CCCCC2)c1", "Potency": "active: 11.7 µM"},
      {"smiles": "COc1ccc(C2=Nn3c(nnc3-c3ccc(OC)cc3)SC2)cc1", "Potency": "active: 10.4 µM"},
      {"smiles": "CCCCN(CCCC)CCNC(=O)c1cn(C)c2ccc(S(=O)(=O)N(C)C3CCCCC3)cc2c1=O", "Potency": "inconclusive [inhibitor, single point]"},
      {"smiles": "COc1ccccc1C(=O)NC(=O)COC(=O)c1ccc([N+](=O)[O-])cc1", "Potency": "inactive"},
      {"smiles": "CC(C)N=C1NN=C(c2cccs2)C(CC(=O)O)S1", "note": "(stereo not given)", "Potency": "inactive"},
      {"smiles": "O=C1c2ccccc2C(=O)N1CCCCN(C(=O)c1cc([N+](=O)[O-])ccc1Cl)c1ccc(Cl)cc1", "Potency": "inconclusive [inhibitor, partial curve, poor fit]"},
      {"smiles": "O=S(=O)(/N=C(/Nc1ccc(Cl)c(S(=O)(=O)N2CCOCC2)c1)c1ccc(F)cc1)c1ccccc1", "Potency": "inconclusive [inhibitor, partial curve]"},
      {"smiles": "Cc1nnc(C)n1/N=C/c1cc(Br)cc(Br)c1O", "Potency": "inconclusive [inhibitor, single point]"},
      {"smiles": "COc1ccc(-c2nnc(SCC(=O)Nc3ncc(C(F)(F)F)cc3Cl)n2CC(C)C)cc1", "Potency": "inactive"},
      {"smiles": "CC1=C(C(=O)Nc2ccccc2)C(c2cccc([N+](=O)[O-])c2)Nc2nc3ccccc3n21", "note": "(stereo not given)", "Potency": "inconclusive [inhibitor, single point]"},
      {"smiles": "CCCC1C(=O)N(Cc2ccccc2)C(=O)CC1C", "note": "(stereo not given)", "Potency": "inconclusive [inhibitor, full curve, poor fit]"},
      {"smiles": "COc1ccc(-c2nc3ccccc3c(=O)n2CCCn2ccnc2)cc1", "Potency": "inconclusive [inhibitor, partial curve]"},
      {"smiles": "Cc1ccc(NC(=O)COC(=O)c2c[nH]c3ccccc23)cc1C", "Potency": "inconclusive [inhibitor, single point]"},
      {"smiles": "CCCOC1CCCN(C(=O)c2cc(COc3ccc(-n4cncn4)cc3)on2)C1", "note": "(stereo not given)", "Potency": "inconclusive [inhibitor, full curve, poor fit]"},
      {"smiles": "O=C(Nc1ccc2[nH]c(=O)[nH]c2c1)c1ccc([N+](=O)[O-])o1", "Potency": "inconclusive [inhibitor, single point]"},
      {"smiles": "COc1ccc(-c2nn(-c3ccccc3)cc2/C=C/C(=O)OCC(=O)Nc2cccc(C#N)c2)cc1", "Potency": "inconclusive [inhibitor, single point]"},
      {"smiles": "CCOc1ccc(NC(=O)C2CC(=O)N(CCc3ccc(OC)c(OC)c3)C2)cc1OCC", "note": "(stereo not given)", "Potency": "inconclusive [inhibitor, single point]"},
      {"smiles": "N#C[C@H]1[C@H](c2ccccc2)[C@](C#N)(C(=O)c2ccccc2)[C@@H]2C=Cc3ccccc3N21", "Potency": "inconclusive [inhibitor, single point]"},
      {"smiles": "Cc1ccc(NC(=O)CSc2nc(-c3ccco3)cc(C(F)(F)F)n2)cc1C", "Potency": "inconclusive [inhibitor, single point]"},
      {"smiles": "C/C(CCc1oc2ccccc2c1-c1ccc(C)o1)=N/O", "Potency": "inactive"},
      {"smiles": "COCCCNC(=O)c1ccc2c(c1)ncn2-c1ccc(C)cc1C", "Potency": "active: 11.7 µM"},
      {"smiles": "O=C(CSc1nnc2c(n1)[nH]c1ccccc12)Nc1cccc(S(=O)(=O)N2CCOCC2)c1", "Potency": "inconclusive [inhibitor, partial curve]"},
      {"smiles": "COc1ccc(CCNC(=O)CSc2c[nH]c3ccccc23)cc1OC", "Potency": "inactive"},
      {"smiles": "Cc1ccc(CNCc2cc3c(C(C)(C)C)nn(-c4ccccc4)c3[nH]c2=O)cc1", "Potency": "active: 0.37 µM"},
      {"smiles": "COc1cc(-c2nc3cccc(C)n3c2NCC2CCCO2)ccc1O", "note": "(stereo not given)", "Potency": "inconclusive [inhibitor, single point]"},
      {"smiles": "CCOC(=O)c1nn(-c2ccccc2F)c(-c2ccccc2)c1C(=O)c1ccccc1", "Potency": "inconclusive [inhibitor, single point]"},
      {"smiles": "O=C(c1ccccc1)N1CCN(Cc2ccc3c(c2)OCO3)CC1", "Potency": "inactive"},
      {"smiles": "O=c1c2cnn(-c3ccccc3)c2nc(-c2cccs2)n1-c1cccc(Cl)c1", "Potency": "active: 13.1 µM"},
      {"smiles": "CC(C)(C)n1nnnc1C(c1cccs1)N(Cc1ccccc1)Cc1cccnc1", "note": "(stereo not given)", "Potency": "inconclusive [inhibitor, full curve]"},
      {"smiles": "Cc1ccc(-n2nc3c(c2NC(=O)C(C)C)CS(=O)(=O)C3)c(C)c1", "Potency": "active: 0.0147 µM"},
      {"smiles": "CCCCNC(=S)N(C)/N=C/c1c(C)[nH]c2ccccc12", "Potency": "inconclusive [inhibitor, partial curve, poor fit]"},
      {"smiles": "Cc1cc(=O)oc2cc(NC(=S)NNC(=O)c3c(Cl)cnn3C)ccc12", "Potency": "inactive"},
      {"smiles": "O=S(=O)(c1cccc(-c2cn3ccccc3n2)c1)N1CCCC1", "Potency": "inactive"},
      {"smiles": "COc1ccccc1CCC(=O)Nc1cccc(S(=O)(=O)N2CCOCC2)c1", "Potency": "inconclusive [inhibitor, partial curve, poor fit]"},
      {"smiles": "CC12CCC(=O)N1C(C(=O)Nc1nc(-c3ccc(F)c(F)c3)cs1)CS2", "note": "(stereo not given)", "Potency": "inconclusive [inhibitor, single point]"},
      {"smiles": "CCC(C(=O)OCCN(CC)CC)c1ccccc1", "note": "(stereo not given)", "Potency": "inactive"},
      {"smiles": "CC1=Nc2ccccc2N=C(NC(=O)c2ccccc2)C1c1ccc(Cl)cc1", "note": "(stereo not given)", "Potency": "inconclusive [inhibitor, single point]"},
      {"smiles": "CC(=O)N(Nc1ccccc1)c1ccccc1", "Potency": "inactive"},
      {"smiles": "C=CCNC(=S)N/N=C/c1cn(C)c2ccccc12", "Potency": "active: 8.28 µM"},
      {"smiles": "COc1ccc(NC(=O)c2cccc(N3C(=O)C4C5C=CC(C6CC56)C4C3=O)c2)cc1", "note": "(stereo not given)", "Potency": "inconclusive [inhibitor, single point]"},
      {"smiles": "COc1ccc(S(=O)(=O)N2CCN(C(=O)c3cc(-c4ccc(C)cc4)n[nH]3)CC2)cc1", "Potency": "inconclusive [inhibitor, full curve, poor fit]"},
      {"smiles": "CCc1cc(=O)oc2cc(OCC(=O)N3CC[C@@]4(O)CCCC[C@H]4C3)ccc12", "Potency": "inconclusive [inhibitor, single point]"},
      {"smiles": "FC(F)(F)c1cc(CCN2CCNC[C@H]2Cc2cccc3ccccc23)cc(C(F)(F)F)c1", "Potency": "inconclusive [inhibitor, single point]"},
      {"smiles": "COC(=O)c1ccc(NC(=S)NCCc2ccc(OC)cc2)cc1", "Potency": "inconclusive [inhibitor, partial curve, poor fit]"},
      {"smiles": "Cc1ccccc1NS(=O)(=O)c1ccc2[nH]cc(C(=O)NCCCN3CCOCC3)c(=O)c2c1", "Potency": "active: 4.15 µM"},
      {"smiles": "Cn1c(N)c(C(=O)COC(=O)c2cccc(S(=O)(=O)N3CCCCC3)c2)c(=O)n(C)c1=O", "Potency": "inconclusive [inhibitor, single point]"},
      {"smiles": "CN1C(=O)/C(=C\\c2ccc(N3CCCCCC3)cc2)C(=O)NC1=S", "Potency": "inactive"},
      {"smiles": "O=C(O)c1ccc(N=Nc2c(O)ccc3ncccc23)cc1", "Potency": "inconclusive [inhibitor, full curve]"},
      {"smiles": "COc1ccc(OC)c(CCNC(=O)c2ccc3c(c2)N(Cc2ccc(F)cc2)CCS3)c1", "Potency": "inconclusive [inhibitor, single point]"},
      {"smiles": "N[C@@]1(C(=O)O)CC[C@@H](C(=O)O)C1", "Potency": "inactive"},
      {"smiles": "COc1ccccc1N1CCN(C(=O)c2noc(C)c2[N+](=O)[O-])CC1", "Potency": "inactive"},
      {"smiles": "CCN(CC(=O)Nc1cc(Cl)ccc1C)C(=O)CCS(=O)(=O)c1ccc(C)cc1", "Potency": "inactive"},
      {"smiles": "CCN(CC(=O)Nc1ccc(NC(C)=O)cc1)C(=O)/C=C/c1cn(Cc2ccccc2)nc1-c1cccnc1", "Potency": "inconclusive [inhibitor, partial curve, poor fit]"},
      {"smiles": "COc1ccc(-n2nnnc2-c2ccc(S(C)(=O)=O)cc2Cl)cc1", "Potency": "inactive"},
      {"smiles": "C(=C\\c1ccccn1)/c1ccccn1", "Potency": "inactive"},
      {"smiles": "CCC1=C(OC(=O)N(CC)CC)N2C(=O)OC(=NCCc3c[nH]c4ccccc34)[C@]2(Cc2ccccc2)[C@H]2C1=CC[C@H]1C(=O)N(C)C(=O)[C@H]12", "Potency": "active: 10.4 µM"},
      {"smiles": "O=C(NC12CC3CC(CC(C3)C1)C2)N1CCN(c2ccccn2)CC1", "Potency": "active: 11.7 µM"},
      {"smiles": "O=C(NNc1ccccn1)C(=O)NNS(=O)(=O)c1ccc(F)cc1", "Potency": "inactive"}
    ]}
  ]
}
